The results in this text go back to the RNAGym collection of RNA variant scans (doi:10.1093/nar/gkz1192).

Read counts are not given, so values of variants with three or more changes are uncertain.

To fix the notation:
B1: CPEB3 Ribozyme (parent)
chain: UAACAGGGGGCCACAGCAGAAGCGUUCACGUCGCAGCCCCUGUCAGAUUCUGGUGAAUCUGCGAAUUCUGCUGUAUAUCUC

The variants in the data set derive from B1. Description: self-cleavage, relative activity (ratio to wild type); higher = more cleavage; in vitro, sequencing. Put shortly:
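Libraries of CPEB3 self-cleaving ribozyme mutants came from rounds of error-prone PCR and carried barcodes, which DNA sequencing matched to variants. In vitro transcription used T7 RNA polymerase at 37°C for 5 hours, with a further 15 min in DNase I before EDTA stopped the reaction; the ribozymes cleaved during both steps. The RNA was reverse transcribed with template switching and sequenced on Illumina. Relative activity is the cleaved/total read fraction of a variant divided by that of the unmutated ribozyme, averaged over three batches with at least 5 reads.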
As to UGACGGGGGGCCACAGCAGAAGCGCUCACGUCGCAGCCUCUGACAGAUUCUGGUGGAUCUGCGAAUUCUGCUGUAUAUCUC, the self-cleavage is 0.09. The same measure for UGACGGGGGGCCGCAGCAGAAGCGCUCACAUCGCAGCCCCUGUCAGAUUCUGGUGAAUCUGCGAGUUCAGCUGUAUAUCUC: 0.05.

As to UGACCGGGGGCCACAGCAGAAGCGUUCACGUCGCAGCCCCUGUCAGAUUCUGGUGAAUCUGCGAAUUCUGCUGUAAAUCUC, the self-cleavage stood at 0.74. The same measure for UGACCGGGGGCCACAGCAGAAGCGUUCAGAUCGCAGCCCCUGUAAGAUUCUGGUGAAUCUGCGAGUUCUGCUGUAUACCUC: 0.15; for UGACGGGGGGCUACAGCAGAAGCGCUCACGUCGCAGCCCCUGUCAGAUUCGGGUGAAUCAGCGAAUUCUGCUGUAUAUCCC: 0.08. As to UGUCAGGGGGCCACAGCAGAAGCGUUCACGUCGCAGCCCCAGUCGGAUCCUGGUGAAUCUGCGGAUUCUGCUGUACAUCUC, the self-cleavage is 0.07. To UGACGGGGGGCCACAGCGGAAGCGUUCACGUCGCAGCCCCUGUCAGGUUCUGGUGAGUCUGCGAAUUCAGCUGUAUAUCUC belongs 0.17; to UGACUGGGGGCCACAGCUGAAGUGUUCACGUCGCAGCCCCUGUCAGAUUCUGGAGGAUCUGCGAAUUCUGCUGUAUAUCUC, 0.15. In the case of UGACGGGGGGCCACAGCAGUAGCGUUCACGUCGCAGCCCCUGUCAGAUUCUGGUGAAUCUGCGAACUCUGCUGUAUAUCUC, the self-cleavage was determined as 0.35. To UGACGGGGGGCCACAGCAGAAGCGUUCACGUCGCAGCCCCUGUCAGAUUCUGGCGUAUCUGCGAAUUCUGCUGUAUAUCCC belongs 0.41; to UGACCGGGGGCCACAGCAGAAGCGUUCACGUCGCAGCCCCUGUCAGAUUCUGGAGGAUCUGCGAAUCCUGCUGAAUAUCUC, 0.18; to UGACUGGGGGCGACAGCAGAAGCGUUCACGUCGCAGCCCAUGUCAGAUUCAGGUGAAUCUGCGAAUUCCGCUGUAUAUCUC, 0.14.

Consider UGACAGGGGGCCUCAGCAGAAGCGUUCACGUCGCAGCCUCUGUCGGAUUCUGGGGAAUCUGCGAAUACUGCUGUAUAUCUC, for which the self-cleavage came to 0.03. For the variant UGACAGGGGGCCUCAGCAGAAGCGUUCACGUCGCAGCCCCUGUCAGAUUCUGGUGAAUUUGCGAACUCUGCCGUAUAUCUC, the self-cleavage worked out at 0.24.

Regarding UGACGGGGGGCCACAGCAGAAGCGUUCACGUCGCGGCCCCAGCCAGAUUCUGGUGUAUCUGCGAAUUCUGCUGUAUAUCUC, the self-cleavage is 0.18. For UGACAGGGGGCCGCCGCAGAAGCGUUCACGUCGCAGCCCCUGUCAGAUUCUGGUGAAUCUGCGAAUUCUGCUGUAUAUCUC, the self-cleavage came out at 0.49.

With UGACAGGGGGCCGCGGCAGAAGCGUUCACGUCGCAGCCCCUGUCAGAUUCUGGUGAAUCUGCGAAUUCUGCUGUAUAUCUC, the self-cleavage was determined as 0.11. To UGACGGGGGGCCACAGCAGAAGCGUUCACGUCGCAGCCCCUGUCAGACUCUGGUGAAUCUGCGAAUUCUGCGGUAUAUCUC belongs 0.08; to UGACAGGGGGCCUCAGCAGAAGCGUUCACGUCGCAGCCCCUGUCAGAUUCUGGUGAGUCUGCGAAUUCUGCUGUAUAUCUC, 0.24; to UGACGGGGGGCCACAGCUGAAGCGUCCGCGUCGCAGCCCCUGUCAGAUUCUGGUGAAACUGCGAAUUCUGCUGUAUAUCUC, 0.47. With UGACAGGGGGCCUCAGCAGAAGCGUUCACGUCGCGGCCCCUGUCAGAUUCUGGUGAAUCUGCCAAUUCUGCUGUAUAUCUC, the self-cleavage stood at 1.14.

On to UGACGGGGGGUCACAGCAGAAGCGUUCACGUCGCAGCCCCUGUCAGAUUCUGGUGAAUCUGCGAACUCUGCUGUAUAUCUC, for which the self-cleavage came out at 0.18. Take UGACGGGGGGCCACAGCAGAAGCUUACACGUCGCAGCCCCUGUCAGAUUCUGGUGAAUCUGCGAGUUCUGCUGUAUACCUC: the self-cleavage amounted to 0.11.

In the case of UGACUGGGGGCCACAGCAGAAGCGUUCACGUCGCAGCCCCUGUCAGAUUCUGGCGAAUCUGCGAAUACUGCUGUAUAUCUC, the self-cleavage is 0.57. The same measure for UGACGGUGGACCACAGCAGAAGCGUUCACGUCGCAGCCCCUGUCAGAUUCUGGUGAAUCUGCGAAUUCUGCUGUAUAUCUC: 0.44; for UGACUGGGGGCCGCAGCAGAAGCGUUCACGUCGCAGCCCCUGUCAGAUUCUGGUGAAUCUGCGAAUUCUGCUGUAUAUCUC: 0.23. As to UGACAGGGGGCCGCCGCAGAAGUGUUCACGUCGCGGCCCCUGUCGGAUUCUGGUGAAUCUGCGAAUCCUGCUGUAUAUCUC, the self-cleavage is 0.08.

As for UGACAGGGGGCCUCUGCAGAAGUGUUCACGUCGCAGCCCCUGUCAGAUUCUGGUGAAUCUGCGAAUUCUGCUGUAUAUCUC, the self-cleavage came out at 0.3.

Regarding UGACUGGGGGCCACAGCUGAAGCGUUCACGUCGCAGCCCCUGUCAGACUCUGGUGAAUCUGCGGAUCCAGCUGUAUAUCUC, the self-cleavage came to 0.08.

In the case of UGACGGGGGGCCACAGCAGAAGCGUUCACGUCGCAGCCCCUGUCAGAUUCUGGUGAAUCUGCGGAUUCUGCUGUAUAUCUC, the self-cleavage stood at 0.45. Regarding UGACGGGGGGCCACAGCAGAAGCGAUCACGUCGCAGCCCCUGUCAGUUUCUGGUGAAUCUGCGAAUUCUGCUGUAUAUCUC, the self-cleavage is 0.5. To UGACUGGGGGCCACAGCAGAAGCGUGCACGUCGCAGCCCCUGUCAGAUUCUGGUGAGUCUGCGAAUUCUGCCGUAUAUCUC belongs 0.57. The same measure for UGACAGGGGGCCUCAGCGGAAGCGUUCACGUCGCAGCCCCUGUCAGAUUCUGGUGAAUCUGCGGAUUCUGCUGCAUAUCUC: 0.29; for UGACAGGGGGCCACGGCAGGAGCGUUCACGUCGCAGCCCCUGUCGGAUUCUGGUGAAUCUGCGAAUUCUGCUGUAUAUCUC: 0.51.
